The record followed here is ChEMBL document CHEMBL4888484, “Replenishing the malaria drug discovery pipeline: Screening and hit evaluation of the MMV Hit Generation Library 1 (HGL1) against asexual blood stage Plasmodium falciparum ,using a nano luciferase reporter read-out” (2022).

The campaign covered roughly 150,000 compounds. About 540 (0.36%) showed an effect of 50% or more. The list shows a part of the results.

This experiment deals with Plasmodium falciparum. The experiment in a line: Primary screen in NF54 nanoGlo assay, in single point, at 2uM, 72h; a lower Z score goes with more inhibition. It counts as functional, Erythrocyte. The following applies: timepoint 72 hour.
`O=C1N[C@@H](c2cccc3c2OCCCO3)Nc2ncccc21`: the “% Inhibition” value is reported as -10% and the Z score amounted to 1.22.
The corresponding values for `CC(C)=CC1C(C(=O)N2CCCC(C(N)=O)C2)C1(C)C` (stereo unspecified) are -9% and 1.48.
In the case of `COc1ccc(-c2c(C)c(-c3nnc(C)o3)nn2-c2ccc(C(=O)NCCC#N)cc2)cc1`, the “% Inhibition” value is listed as 14% and the Z score is on record as -1.92.
For `O=C(NC1CCCc2c1[nH]c1ccc(F)cc21)[C@@H](c1ccccc1)n1cnnn1` (stereo partly specified) the same measures were 7% and -0.81.
The corresponding values for `Cc1ccc([C@H]2CN(CC(=O)Nc3cn(C)nc3C)C[C@@H]2N(C)C)cc1` are -12% and 2.27.
Consider `CC(C)c1cc(C(=O)N(C)C2CCS(=O)(=O)CC2)n(C)n1`, for which the “% Inhibition” value is given as 3% and the Z score is reported as -0.49.
The corresponding values for `NC[C@H]1Cc2cc(-c3ccc4ccccc4n3)cc(Cl)c2O1` are 19% and -2.69.
The corresponding values for `COc1ccc(C2CN(Cc3cccc(C)c3)CC2CN(Cc2ccc(F)cc2)C(C)=O)cc1` (stereo unspecified) are -9% and 0.88.
For `Cc1nc(N)sc1CC(=O)NC[C@H]1CCCCN1C` the same measures were -9% and 1.21.
Take `CN1CCCC[C@H]1C(=O)NCc1c(F)c(F)cc(F)c1F`: the “% Inhibition” value was -7% and the Z score turned out to be 0.94.
Turning to `COc1ccccc1C[C@H]1CCCN(S(=O)(=O)N2CCCC2)C1`, the “% Inhibition” value is -15% and the Z score is reported as 1.53.
The corresponding values for `Cc1c(CN2CC(N3CCCCC3)C2)oc2ccccc12` are -5% and 0.71.
For `Cc1ccc2nc(Cc3ccccc3)c(NC(=O)C3CCCCC3)n2c1` the same measures were -7% and 1.06.
For `CC[C@@H]1OC2(CCN(C(=O)c3cccc(-n4ccnc4)c3)CC2)NC1=O` the same measures were 3% and -0.41.
For `CCC(C)(Nc1ccc(Cl)cc1)c1nnnn1C(/C=C\c1ccc(Cl)cc1Cl)C(C)(C)C` (stereo unspecified), the “% Inhibition” value amounted to 1% and the Z score is on record as -0.17.
For `CC1CC(C)CN(C(C(=O)NC2CCCCC2)c2ccc(Cl)cc2)C1` (stereo unspecified) the same measures were 1% and -0.21.
Regarding `Cc1nc(C(=O)N2CCC3(CC2)CC3(F)F)co1`, the “% Inhibition” value is on record as -10% and the Z score amounted to 1.28.
In the case of `O=C(c1cc2n(n1)CCN(c1ccc3ccccc3n1)C2)N1CCCC1`, the “% Inhibition” value was 2% and the Z score was -0.32.
For `COc1ccc(-n2nc(C)c3sc(N4CCCN(C(=O)c5ccc(C)s5)CC4)nc32)cc1` the same measures were -7% and 1.31.
Take `C[C@H]1OCC[C@H]1NC(=O)CCCc1cc(F)ccc1F`: the “% Inhibition” value is -19% and the Z score was found to be 2.51.
The corresponding values for `Cc1cnc(N2CCO[C@H](c3ccccc3)C2)nc1-c1cnn(C)c1` are -3% and 0.49.
The corresponding values for `CS(=O)(=O)C1(C(=O)N2CCC23CCC3)CCC1` are 1% and -0.18.
As for `COC1CCN(C(=O)c2cc3c(s2)CCCCC3)CC1`, the “% Inhibition” value is given as -10% and the Z score turned out to be 1.76.
For `Cc1nc(C)c(F)c(NC2CCOC(c3ccnn3C)C2)n1` (stereo unspecified) the same measures were -8% and 0.89.
For `CN(C)c1ccc(NC(=O)c2ccc3c(c2)CCCC3)cn1` the same measures were -8% and 1.
The corresponding values for `COc1ccsc1S(=O)(=O)N(C)c1cccc(C)n1` are -11% and 1.91.
As to `COc1cc(NC(=O)c2c(-c3ccccc3)noc2C)c(OC)cc1NC(=O)c1ccccc1`, the “% Inhibition” value is 2% and the Z score is given as -0.47.
For `CC(=O)Nc1ccc(C)c(NC(=O)N(C)CCc2noc(C)n2)c1` the same measures were -9% and 1.16.
In the case of `O=C1CN(C(=O)C2CC2c2ccccc2C(F)(F)F)CCN1` (stereo unspecified), the “% Inhibition” value was 33% and the Z score was -4.81.
Consider `CCOC(=O)c1nccc(N(C)CCc2cnccn2)n1`, for which the “% Inhibition” value was -1% and the Z score worked out at 0.27.
The corresponding values for `CCOC(=O)N1CCC2(CCC(N3C[C@H](OC(C)C)[C@@H](O)C3)CC2)CC1` are -11% and 1.28.
The corresponding values for `CCCC(C#N)(CCC)NC(=O)[C@H](C)c1ccsc1` are 7% and -0.72.
For `COc1cc(NC(=O)c2cnc(N3CCCCC3)nc2C)cc(OC)c1` the same measures were -6% and 1.05.
As to `Cc1cnn(C)c1S(=O)(=O)N[C@H](C1CCC1)C1CC1`, the “% Inhibition” value is reported as -2% and the Z score is given as 0.3.
The corresponding values for `Cc1[nH]nc(C(=O)NCc2ccncc2)c1C` are -9% and 0.92.
The corresponding values for `C[C@@H]1CN(CC(O)c2cccc(Cl)c2)CC(C(N)=O)O1` (stereo partly specified) are -13% and 1.72.
The corresponding values for `C#CCOc1cc(CNC(=O)C#CC)ccc1OC` are -9% and 1.7.
As for `CCOC(=O)C1CCN(Cc2cncc(-c3cc(F)ccc3OC)c2)CC1`, the “% Inhibition” value is reported as -4% and the Z score came to 0.39.
The corresponding values for `CCn1ncnc1CN1CCc2[nH]nc(-c3ccc(C(C)(C)C)cc3)c2C1` are -22% and 2.8.
As for `CC1CC(CS(=O)(=O)N(C)[C@@H](C)c2ccncc2)C1` (stereo partly specified), the “% Inhibition” value turned out to be 1% and the Z score was -0.27.
For `CCCC[C@H](CC)C(=O)NCCc1ccc(OC)c(OC)c1` the same measures were 2% and -0.22.
Regarding `CCCCc1nn(CC(=O)NCc2ccc3nsnc3c2)c(=O)n1CC`, the “% Inhibition” value is on record as -7% and the Z score was found to be 1.31.
For `COc1ccccc1CCC(=O)N1CCc2nn(C)c(=O)n2CC1` the same measures were -14% and 1.78.
With `CCOCCC(=O)NCC1(N2CCOCC2)CCCCCC1`, the “% Inhibition” value is reported as -10% and the Z score was found to be 1.92.
For `CCCn1nc(C(=O)N2CCCCC2)c2c1CC[C@H](N1CCN(CC)CC1)C2` the same measures were -12% and 1.36.
Take `C=CCC[C@@H](CN(C)CCN(C)C)Oc1ncc(C)c(N(C)C)n1`: the “% Inhibition” value is -8% and the Z score turned out to be 1.59.
For `Cn1ncc(COc2ccc(CO)nc2)c1C(F)(F)F` the same measures were -1% and 0.11.
For `C[C@H]1[C@@H](NC(=O)NC(c2ccncc2)C2CC2)CCS1(=O)=O` (stereo partly specified) the same measures were -14% and 1.84.
The corresponding values for `COC(=O)[C@@H]1CCCN1C(=O)CC1(c2ccccc2)CC(=O)N(Cc2cccnc2)C1=O` (stereo partly specified) are -8% and 1.14.
With `CC1(C)CCc2sc(N3CCOCC3)nc21`, the “% Inhibition” value amounted to 5% and the Z score is given as -0.54.
For `Cc1c(C(=O)N2CCOCC2)c(S(=O)(=O)N2CCc3ccccc32)c(C)n1C`, the “% Inhibition” value is -11% and the Z score amounted to 2.08.
For `Cc1cccc(Cl)c1OCCN1C[C@H](O)[C@@H](N2CCCC2)C1`, the “% Inhibition” value is -3% and the Z score was 0.42.
Turning to `CC1(C)CC(NC(=O)C2CCCCC2)CC(C)(C)N1`, the “% Inhibition” value is given as -4% and the Z score is on record as 0.38.
As to `CCCCn1c(N)c(N(Cc2ccco2)C(=O)COc2ccc(CC)cc2)c(=O)[nH]c1=O`, the “% Inhibition” value was -21% and the Z score is 3.34.
The corresponding values for `CC[C@@H]1CCO[C@@H]1C(=O)N[C@@H](CC(=O)O)c1ccc2ccccc2c1` are 2% and -0.37.
The corresponding values for `COc1cc(C(=O)N2CCC(CC(=O)NCc3ccc(C)cc3)CC2)cc(OC)c1OC` are 2% and -0.3.
For `COc1ccc(C(=O)N2C[C@@H]3OCC(=O)N(CC4CC4)[C@@H]3C2)cc1` the same measures were -11% and 1.41.
Take `Cc1nn(C(C)C)cc1C(=O)N1CCC2(CN(C)C2)C1`: the “% Inhibition” value is on record as -4% and the Z score worked out at 0.76.
The corresponding values for `Cc1ccc(CC(=O)N2C[C@@H](COc3ccncc3)[C@H](C(N)=O)C2)cc1` are -3% and 0.43.
For `O=C(C#Cc1ccc2c(c1)OCO2)NCCNc1ccccc1`, the “% Inhibition” value is reported as 1% and the Z score is on record as -0.22.
Regarding `O=C(CN1CCN(c2ccc(F)cc2)C1=O)NC[C@H]1Cc2ccccc2CO1`, the “% Inhibition” value turned out to be 1% and the Z score is reported as -0.15.
As to `CCc1nc(C)cc(N2CCC3(NC(=O)C4(F)CCCC4)CCCC23)n1` (stereo unspecified), the “% Inhibition” value was found to be 16% and the Z score is recorded as -2.02.
On to `Cn1nc(C2CCCCC2)cc1NC(=O)CCc1cncc(F)c1`, for which the “% Inhibition” value is on record as -8% and the Z score is given as 1.7.
Take `CS(=O)(=O)NCCc1ncnn1Cc1c(F)cccc1Cl`: the “% Inhibition” value is -2% and the Z score came to 0.47.
The corresponding values for `O=S(=O)(c1cccs1)N(CCn1ccc(C(F)(F)F)n1)C1CCCC1` are 19% and -2.39.
For `O=C(CCN1CCC[C@H]1c1nc(C2CC2)no1)Nc1ccc2c(c1)CCC2` the same measures were -14% and 1.34.
As to `COCC1(NC(=O)[C@]2(c3ccc(OC)cc3)CC2(C)C)CCCC1`, the “% Inhibition” value is -4% and the Z score is given as 0.5.
For `Cc1nc2c([nH]1)CN(C(=O)NC1CC(C)(C)CC(C)(C)C1)CC2` the same measures were -11% and 1.51.
`Cc1ccc(-c2cc(NS(=O)(=O)c3ccc(F)cc3)n([C@H]3CCS(=O)(=O)C3)n2)cc1`: the “% Inhibition” value was -1% and the Z score was 0.13.
The corresponding values for `COc1ccc2oc(CNc3nnc(C(C)(C)C)o3)nc2c1` are -8% and 0.93.
On to `Cc1ccc2c(c1)OCCN2S(=O)(=O)c1ccc2c(c1)C(=O)NCC2`, for which the “% Inhibition” value was found to be 7% and the Z score is -0.75.
For `Cc1cnc(C)c(N2CCC3(CCC(=O)N([C@H]4CCN(C)C4)C3)CC2)n1` the same measures were -12% and 2.29.
The corresponding values for `CCC(C)(C)C(=O)N1CCC[C@@H]1CCc1ncc(C)n1C(C)C` are 36% and -4.8.
On to `Cc1cnc(CN2C[C@]3(CCCN(C(=O)c4nc(C)c[nH]4)C3)CCC2=O)cn1`, for which the “% Inhibition” value is given as -13% and the Z score worked out at 2.47.
Consider `Cn1c(=O)c2c(-c3ccccc3F)n3c(c2n(C)c1=O)[C@@H](c1cccc(Cl)c1)Nc1ccccc1-3`, for which the “% Inhibition” value was found to be 14% and the Z score is -1.78.
The corresponding values for `Cc1ccc(CC2(N[C@@H](C)CN(C)CCO)CC2)cc1` are 2% and -0.39.
Take `Cc1ccc(C(=O)N(C(C)C)C(C)C)o1`: the “% Inhibition” value is -29% and the Z score is reported as 3.42.
The corresponding values for `CC(C)c1ncc(C(=O)NCc2cccnc2-n2cnc3ccccc32)c(=O)[nH]1` are -8% and 1.66.
As for `CC(C)n1cccc1C(=O)N1CCC[C@H]1C(=O)N1CCCCC1`, the “% Inhibition” value is -12% and the Z score is reported as 2.31.
For `CCOC1CC(CCNC(=O)Nc2nnc(-c3ccsc3)s2)C1` (stereo unspecified) the same measures were 7% and -0.74.
As for `COC1CCN(C(=O)N[C@H](c2ccccc2)c2cc3ccccc3o2)CC1`, the “% Inhibition” value was -4% and the Z score is 0.65.
The corresponding values for `Cc1noc(C)c1CN[C@@H](C)c1nc(C2CCCC2)no1` are -4% and 0.6.
The corresponding values for `Cc1ccc([C@H](CNC(=O)c2cnc(-c3cccnc3)nc2O)N(C)C)o1` are -9% and 0.84.

Usually % Inhibition stands for the relative decrease from the control value, in per cent.
